Counter-ions that a name gives are not always drawn. ± gives the standard deviation of the averaged measurements. Over roughly 3,200 compounds, “nuclei count (viability) relative to DMSO” has its median near 99; the lowest 2% begin near 16. This is one part of the list.
test system: U2OS; test: nuclei count (viability) relative to DMSO (% of DMSO); higher = more viable cells; conditions: 10 µM; 24 h
Procedure: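 Primary image-based screen in U2OS cells: compounds at 10 uM for 24 h, then a 1 h o-propargyl-puromycin (OPP) pulse, click labelling, and high-throughput microscopy. Mean cytoplasmic OPP intensity and nuclei count were normalised to DMSO wells within each plate (DMSO = 100) and averaged over triplicate plates.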

| SMILES | nuclei count |
| --- | --- |
| C[C@H](NC(=O)Cc1cc(F)cc(F)c1)C(=O)N[C@H](C(=O)OC(C)(C)C)c1ccccc1 | 85.7 |
| CC(=O)OCCNC(=O)c1cccnc1 [N-[2-(Acetoxy)ethyl]-3-pyridinecarboxamide] | 100 |
| CNC(CC(=O)O)C(=O)O [NMDA (N-Methyl-D-aspartic acid)] | 98.2 |
| CC(C)(C)C(=O)OCOP(=O)(COCCn1cnc2c(N)ncnc21)OCOC(=O)C(C)(C)C [Adefovir Dipivoxil (Preveon, Hepsera)] | 59.3 |
| Cc1ccc(NC(=O)C(C)C)cc1C1CCN(Cc2ccc(Oc3ccc(F)c(F)c3)cc2)CC1 | 94.1 |
| COc1cc(OC)c(C(=O)CCCN2CCCC2)c(OC)c1 [Buflomedil hydrochloride] | 91 |
| O=c1ccc2ccc(O)c(O)c2o1 [Daphnetin] | 104 |
| N#CC(c1ccc(Cl)cc1)c1c(Cl)cc(-n2ncc(=O)[nH]c2=O)cc1Cl (stereo not given) [Diclazuril] | 99.6 |
| CC[C@H](CC[C@@H](C)[C@H]1CC[C@H]2[C@@H]3CC=C4C[C@@H](O)CC[C@]4(C)[C@H]3CC[C@]12C)C(C)C [?-Sitosterol] | 110 |
| C/C=C1\NC(=O)[C@H]2CSSCC/C=C/[C@H](CC(=O)N[C@H](C(C)C)C(=O)N2)OC(=O)[C@H](C(C)C)NC1=O [Romidepsin (FK228 ,depsipeptide)] | 8.81 |
| COc1ccc2c(c1)N(C[C@H](C)CN(C)C)c1ccccc1S2 [Methotrimeprazine maleat salt] | 107 |
| O=C(O)CC[C@H]1CC[C@@](c2cc(F)ccc2F)(S(=O)(=O)c2ccc(Cl)cc2)CC1 | 101 |
| CCCN(CCC)C(=O)C(CCC(=O)O)NC(=O)c1ccccc1 (stereo not given) [Proglumide] | 103 |
| CCN1C(=O)NC(c2ccccc2)C1=O (stereo not given) [Ethotoin] | 93.5 |
| Nc1nc(N)c2nc(-c3cccc(O)c3)cnc2n1 | 94.7 ± 4.5 |
| CN1CCC(=C2c3ccccc3CC(=O)c3sccc32)CC1 [Ketotifen fumarate] | 99.9 ± 4.6 |
| Cc1nnc(-c2ccc3occ(-c4ccc([S+](C)[O-])cc4)c3c2)o1 (stereo not given) | 112 |
| COc1ccccc1N1CCN(CC(O)COc2cccc3ccccc23)CC1 (stereo not given) [Naftopidil dihydrochloride] | 98.5 |
| COc1ccccc1N1CCN(CC(O)COc2cccc3ccccc23)CC1 (stereo not given) [Naftopidil hydrochloride] | 91.6 |
| CN1CCCC(CC2c3ccccc3Sc3ccccc32)C1 (stereo not given) [Metixene hydrochloride] | 101 |
| CC(C)(Sc1cc(C(C)(C)C)c(O)c(C(C)(C)C)c1)Sc1cc(C(C)(C)C)c(O)c(C(C)(C)C)c1 [Probucol] | 101 ± 3.9 |
| COC(=O)c1sccc1S(=O)(=O)Nc1ccc(Nc2ccccc2)cc1OC | 93.7 |
| Cn1ccnc1S [Methimazole (Tapazole, Northyx)] | 105 |
| Cn1ccnc1S [Methimazole] | 94.2 |
| Nc1c(Br)cc(Br)cc1CN[C@H]1CC[C@H](O)CC1 [Ambroxol] | 104 |

| SMILES | nuclei count |
| --- | --- |
| Nc1c(Br)cc(Br)cc1CN[C@H]1CC[C@H](O)CC1 [Ambroxol hydrochloride] | 102 ± 2 |
| CC1Nc2ccc(Cl)cc2S(=O)(=O)N1 (stereo not given) | 111 |
| Nc1ccc(-c2nc3ccc(-c4nc5ccc(N)cc5[nH]4)cc3[nH]2)cc1 | 82.2 |
| C=CC(=O)Nc1cccc(Nc2nc(Nc3ccc(N4CCN(C(C)=O)CC4)cc3OC)ncc2C(F)(F)F)c1 | 57.6 |
| CS(=O)(=O)CCNCc1ccc(-c2ccc3ncnc(Nc4ccc(OCc5cccc(F)c5)c(Cl)c4)c3c2)o1 [Lapatinib Ditosylate (Tykerb)] | 93.8 |
| COc1cc(Nc2ncc(F)c(Nc3ccc4c(n3)NC(=O)C(C)(C)O4)n2)cc(OC)c1OC [R406(free base)] | 87.2 |
| COc1cc(Nc2ncc(F)c(Nc3ccc4c(n3)NC(=O)C(C)(C)O4)n2)cc(OC)c1OC | 81.8 |
| CC(=O)[C@@]1(O)CC[C@H]2[C@@H]3CCC4=CC(=O)CCC4=C3[C@@H](c3ccc(N(C)C)cc3)C[C@@]21C [Ulipristal] | 99.7 |
| CC(C)(Oc1ccc(Cl)cc1)C(=O)O [Clofibric acid] | 103 ± 4 |
| COc1ccc(C(=O)Nc2sc3c(c2C(N)=O)CCCC3)cc1OC | 107 ± 3.4 |
| CN(C)CC/C=C1\c2ccccc2CSc2ccccc21 [Dosulepin hydrochloride] | 104 |
| O=NO [Sodium Nitrite] | 104 |
| CC(N)(Cc1ccc(O)c(O)c1)C(=O)O [L-(-)- _-Methyldopa] | 83.6 |
| O=c1cc(N2CCNCC2)oc2c(-c3ccccc3)cccc12 | 91.8 |
| COc1cc2ncc(-c3ccccc3)nc2cc1OC [Tyrphostin AG 1296 (AG 1296)] | 103 |
| Cn1c(=O)c2c(ncn2CC(=O)O)n(C)c1=O [Acefylline] | 104 |
| CS(=O)(=O)c1cccc(CNc2nc(Nc3ccc4c(c3)CCC(=O)N4)ncc2C(F)(F)F)c1 | 45.9 ± 3.2 |
| CC1(C)CCC(CN2CCN(c3ccc(C(=O)NS(=O)(=O)c4ccc(NCC5CCOCC5)c([N+](=O)[O-])c4)c(Oc4cnc5[nH]ccc5c4)c3)CC2)=C(c2ccc(Cl)cc2)C1 | 95.1 |
| CCCCCCCCCCC[C@@H](C[C@@H]1OC(=O)[C@H]1CCCCCC)OC(=O)[C@H](CC(C)C)NC=O [Orlistat (Alli, Xenical)] | 90.5 |
| CCCCCCCCCCC[C@@H](C[C@@H]1OC(=O)[C@H]1CCCCCC)OC(=O)[C@H](CC(C)C)NC=O [Orlistat] | 97.9 |
| Cc1ccc(NC(=O)c2ccc(CN3CC[C@H](N(C)C)C3)c(C(F)(F)F)c2)cc1Nc1nccc(-c2cncnc2)n1 [Bafetinib (INNO-406)] | 77.9 |
| CC(C)(S)[C@@H](N)C(=O)O [Penicillamine] | 99.3 |
| COc1ccc(-c2ccc(=N)n(CCCC(=O)O)n2)cc1 [Gabazine bromide] | 103 |
| COc1ccc(-c2ccc(=N)n(CCCC(=O)O)n2)cc1 | 104 |
| CO[C@H]1C[C@H](O[C@H]2[C@H](C)[C@@H](O[C@@H]3O[C@H](C)C[C@H](N(C)C)[C@H]3OC(C)=O)[C@@H](C)C[C@@]3(CO3)C(=O)[C@H](C)[C@@H](OC(C)=O)[C@@H](C)[C@@H](C)OC(=O)[C@@H]2C)O[C@@H](C)[C@@H]1OC(C)=O [Troleandomycin] | 105 |

Source: the supplement of paper PMC8183993
